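Compound exposure: 48 hours, 5 concentrations, 96-well plates. Here, GI50 denotes the concentration required for 50% inhibition of growth. At the TGI there is no net growth.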
Tested on: NCI-H322M lung
Test: NCI anticancer screen, dose series, 48 h

Compound | GI50 | TGI
CC(C)(C)c1ccc(C(=O)Nc2sc3c(c2C(N)=O)CC/C(=N\O)C3)cc1 | 5.96 µM | 25.2 µM
NC(N)=Nc1ccc(Oc2ccc(Nc3ccc(Cl)c(C(F)(F)F)c3)cc2)cc1 | 1.68 µM | 3.29 µM

From PubChem BioAssay (NCI)
